Experimental data as given in PMC2957522 (Journal of molecular biology, 2010).

Biological target: rabbit skeletal muscle actin (monomeric, Mg-εATP-actin) (rabbit, UniProt P68135)
Experiment: actin nucleotide exchange kinetics

B1: human cofilin (natural protein)
chain: not shown
modifications: paralogue not given; cofilin-1 (CFL1, non-muscle) taken as the likeliest
Kd: 1700 ± 300 nM
